From PubChem BioAssay (NCATS)
The shares of active, inactive and inconclusive entries below differ from those in the screen. No potency is given beside an inconclusive call; the fits are too rough. Activity calls are given as the source filed them. Calls come from the whole dose curve; as a rule, active = well fitted curve in the direction sought with a large enough effect; inconclusive = small, poorly fitted or top-dose-only effect, or another doubt; inactive = no such curve, though single readings can be large; an effect the other way counts as inactive or inconclusive.

Experiments:
[1] = qHTS for Inhibitors of Plasmodium falciparum (GB4) proliferation (AID 504315); note: nearly all actives have a fitted effect of over 50% in size; settings: P. falciparum GB4 in erythrocytes, SYBR Green DNA, 72 h; activity change, negative = inhibition: at 6.7 µM (top of the series)
Method in brief: (§1)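 Parasite growth measured as SYBR Green DNA fluorescence (ex 485, em 535 nm) after overnight lysis following 72 h culture at 37 °C, 0.3% parasitemia, 2.5% hematocrit. Values normalized against DMSO and 0.29 uM artemisinin controls, with plate-stack correction.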

[2] = qHTS for Inhibitors of Plasmodium falciparum (HB3) proliferation (AID 504318); note: nearly all actives have a fitted effect of over 60% in size; settings: P. falciparum HB3 in erythrocytes, SYBR Green DNA, 72 h; activity change, negative = inhibition: at 7.21 µM (top of the series)
Method in brief: as §1

[3] = qHTS for Inhibitors of Plasmodium falciparum (7G8) proliferation (AID 504316); note: nearly all actives have a fitted effect of over 65% in size; settings: P. falciparum 7G8 in erythrocytes, SYBR Green DNA, 72 h; activity change, negative = inhibition: at 6.7 µM (top of the series)
Method in brief: as §1

[4] = qHTS for Inhibitors of Plasmodium falciparum (CP250) proliferation (AID 504320); settings: P. falciparum CP250 in erythrocytes, SYBR Green DNA, 72 h; series mostly up to 6.7 µM
Method in brief: as §1
Potency is the fitted concentration of half-maximal effect; tags give direction and shape of the fitted curve.

SMILES: CCOC(=O)CN1C(=O)N(CC)C(C)=C(C(=O)OC)C1c1ccccc1 (stereo unspecified)
- Potency [1]: inactive
- Potency [2]: inactive

SMILES: COC(=O)CCC(=O)OC1(C)C(=O)C2=CN(C3CC3)C(c3ccc(OC)cc3)=CC2=C(Br)C1=O (stereo unspecified)
- Potency [1]: inactive
- Potency [2]: inactive

SMILES: CC(Nc1oc(-c2ccccc2)nc1C(C)(C)C)c1ccccc1 (stereo unspecified)
- Potency [1]: inconclusive [inhibitor, single point]
- Potency [2]: inconclusive [inhibitor, single point]

SMILES: C=C(C)C(=O)C=Cc1ccc(Br)cc1
- Potency [1]: inactive
- Potency [2]: inconclusive [inhibitor, partial curve, poor fit]

SMILES: COC(=O)C(C(=O)OC)c1ccccc1[N+](=O)[O-]
- Potency [1]: inconclusive [inhibitor, full curve, poor fit]
- Potency [2]: inactive

SMILES: C=CCN1c2ccccc2[C@]23CCC(=O)N(CCc4ccccn4)C2=NC(C(=O)OC)=C(C(=O)OC)[C@H]13
- Potency [1]: inconclusive [activator, partial curve, poor fit]
- Potency [2]: inconclusive [inhibitor, partial curve]

SMILES: COC(=O)CCC(=O)OC1(C)C(=O)C2=CN(C3CCCC3)C(c3ccc(OC)cc3)=CC2=C(Br)C1=O (stereo unspecified)
- Potency [1]: inconclusive [inhibitor, partial curve, poor fit]
- Potency [2]: inconclusive [inhibitor, partial curve, poor fit]

SMILES: CC1=C[C@@H](COCc2ccccc2)O[C@@]2(C1)C(=O)N(Cc1ccc(Br)cc1)c1ccccc12
- Potency [1]: inconclusive [inhibitor, partial curve]
- Potency [2]: inconclusive [inhibitor, partial curve]

SMILES: CCN1C(=NCCc2ccccn2)NC(c2cccc(C(F)(F)F)c2)C(C(=O)OC)=C1C (stereo unspecified)
- Potency [1]: active: 0.301 µM
- Potency [3]: inconclusive [inhibitor, partial curve, poor fit]
- Potency [4]: inconclusive [inhibitor, full curve]

SMILES: C[C@@H]1C[C@H]2[C@@H](C)C(=O)N3[C@@H](C[C@@H](C)[C@@H]3c3ccccc3)[C@@H](C)C(=O)N2[C@H]1c1ccccc1
- Potency [1]: inconclusive [inhibitor, single point]
- Potency [3]: inconclusive [inhibitor, single point]
- Potency [4]: inactive

SMILES: CCN1C(=O)N(C)[C@@H](c2ccccc2)C(C(C)=O)=C1C
- Potency [1]: inconclusive [activator]
- Potency [2]: inactive

SMILES: CC(=O)OC[C@H]1O[C@@H](ON=C(C)CCC(=O)OC[C@H]2O[C@H](C#Cc3ccccc3)C=C[C@H]2Oc2ccc(C)cc2)[C@H](OC(C)=O)[C@@H](OC(C)=O)[C@H]1OC(C)=O
- Potency [1]: inconclusive [inhibitor, partial curve, poor fit]
- Potency [3]: inconclusive [inhibitor, single point]
- Potency [4]: inactive

SMILES: CCN1C(=O)N[C@@H](c2ccco2)C(C(C)=O)=C1C
- Potency [1]: inactive
- Potency [2]: inactive

SMILES: COC(=O)[C@@]1(C=C2c3ccc(F)cc3[C@@H](OC)[C@@H]2C)[C@@H]2C=CC[C@@H]21
- Potency [1]: inconclusive [inhibitor, single point]
- Potency [2]: inconclusive [inhibitor, single point]

SMILES: CCCCC1=CC2=CC(=O)C(C)(OC(=O)CC)C(=O)C2=CN1CCc1ccccn1 (stereo unspecified)
- Potency [1]: inconclusive [activator, full curve, poor fit]
- Potency [2]: inactive

SMILES: C[C@@H]1C=CCCO[C@]12C(=O)N(Cc1ccccc1C(F)(F)F)c1cccc(Br)c12
- Potency [1]: inconclusive [inhibitor, single point]
- Potency [2]: inconclusive [inhibitor, partial curve]

SMILES: CC(C)CON=C1C[C@@H](O)[C@@H](O)[C@@H]2[C@H]3C(=O)N(c4ccc(F)cc4F)C(=O)[C@@H]3CC[C@@H]12
- Potency [1]: inactive
- Potency [2]: inactive

SMILES: C=CCN1C(=O)[C@@]2(CC(C)=CC[C@@H](C)O2)c2ccccc21
- Potency [3]: inactive

SMILES: COc1ccc2c(c1)O[C@@H](c1ccc3c(c1)OCO3)[C@H](O)C2=O
- Potency [1]: inactive
- Potency [2]: inactive

SMILES: COc1ccc([C@]23Cc4cc(C#N)ccc4[C@H](O2)C2=C(CC4(CCCCC4)OC2=O)O3)cc1
- Potency [3]: inconclusive [inhibitor, single point]
